The source of these data is patent US20050009094A1 (priority 2001, published 2005).

Molecules are shown by their SMILES. Read-outs that look alike come from different tables or passages of the source.

The subject of one experiment is 14-3-3 protein mRNA. In words: Expression of 14-3-3 protein mRNA after PCB 118 and 17β-oestradiol, alone or combined (Northern Blotting). The conditions noted are these: for induction of expression of 14-3-3 in lower invertebrates: FIG. 4; for level of the 14-3-3 protein mRNA: PCB 118 2 μg/g, 17β-oestradiol 20 ng/g, 17β-oestradiol = 100% reference value, 3 or 6 days. On the procedure: FIG. 4: The effect of PCB 118 (2 μg/g) and 17β-oestradiol (20 ng/g) on the expression of the 14-3-3 gen. The two chemicals were applied/added to the experimental animals (Geodium cydonium) either as individual substances or in combination. The incubation period was limited to 3 or 6 days.
For the quantification of the 14-3-3 protein mRNA by means of the Northern Blotting technique, gene probes, which extend from the conserved starting regions [aa 45-aa 57] up to the conserved end regions [aa 214-aa 234] of the 14-3-3 protein (FIG. 2) were constructed. The employed method was PCR cloning.
The quantitative evaluation of the signals can be accomplished e.g. by using the chemiluminescence method (Stanley and Kricka, Bioluminescence and chemiluminescence: current status. John Wiley & Sons, New York, 1990) in combination with a PhosphoImager (e.g. GS-525 Molecular Imager from the Bio-Rad company); [Di-sodium 2-chloro-5-(4-methoxyspiro{1,2-dioxetane-3,2 ′-(5′-chloro)-tricyclo[3.3.1.13,7]decane } -4-yl)phenylphosphate] (CDP) is used as a substrate for this.
Moreover, it was successfully shown, that an exponentiation of the expression of 14-3-3 protein mRNA sets in, when both substances are combined. In the absence of both agents, the 14-3-3 protein mRNA is not able to be detected. Whereas the level of the 14-3-3 protein mRNA was 30% when PCB118 is applied, and 100% (reference value) when 17β-oestradiol was applied, both chemicals together induced the expression of 14-3-3 protein at a value of 550%. The induction terminates after 3 days.

In the case of `[Cd]` [Cadmium, cadmium], the “14-3-3 protein (OD unit)” value in the experiment with 14-3-3 protein (cadmium 0.01 mg/kg i.p., liver after 5 days, ELISA) came to 0.30 OD unit; with 14-3-3 protein (cadmium 0.03 mg/kg i.p., liver after 5 days, ELISA), 0.75 OD unit; in the experiment with 14-3-3 protein (cadmium 0.1 mg/kg i.p., liver after 5 days, ELISA), 0.98 OD unit.

Turning to `Clc1ccc(-c2ccc(Cl)c(Cl)c2)cc1Cl` [PCB77], the “14-3-3 protein (OD unit)” value with 14-3-3 protein (0.03 mg PCB per kg i.p., liver after 5 days, ELISA) is 0.97 OD unit.

For the compound `Clc1cc(Cl)c(-c2cc(Cl)c(Cl)cc2Cl)cc1Cl` [PCB153], the “14-3-3 protein (OD unit)” value with 14-3-3 protein (in vivo, ip) is recorded as 0.81 OD unit.

Consider `C[C@]12CC[C@@H]3c4ccc(O)cc4CC[C@H]3[C@@H]1CC[C@@H]2O` [17β-oestradiol], for which, in the experiment on 14-3-3 protein mRNA, the “induction of expression of 14-3-3 in lower invertebrates” value is recorded as “strongly induce” and the “level of the 14-3-3 protein mRNA” value is recorded as 100%.

On to `Clc1ccc(-c2cc(Cl)c(Cl)cc2Cl)cc1Cl` [PCB118], for which the “14-3-3 protein (OD unit)” value with 14-3-3 protein (in vivo, ip) is recorded as 0.74 OD unit. Moreover, in the experiment on 14-3-3 protein mRNA, the “induction of expression of 14-3-3 in lower invertebrates” value is reported as “strongly induce” and the “level of the 14-3-3 protein mRNA” value is listed as 30%.
